Data taken from PubChem BioAssay AID1030 (National Center for Advancing Translational Sciences (NCATS), 2008).
About 16,000 (7.3%) of roughly 220,000 compounds were called active. This list was built around the results that the source calls inconclusive (neither active nor inactive); the mix of calls is not that of the screen. The call rests on the fitted dose curve; in most records, active means well fitted inhibition curve with a large enough effect (not every such curve was filed as active); inconclusive means small, poorly fitted or top-dose-only effect, or another doubt; inactive means no such curve, though single readings can be large or run the other way. A potency beside an inconclusive call is a rough fit, not a confirmed value.

What follows are molecules tested against Aldehyde dehydrogenase 1A1 (Homo sapiens) (UniProt P00352) (assay: qHTS Assay for Inhibitors of Aldehyde Dehydrogenase 1 (ALDH1A1)). Details: Purified ALDH1A1, NADH fluorescence, propionaldehyde substrate; series mostly up to 75.3 µM; activity, negative = inhibition: at the top concentration.
UniProt P00352, sequence (P00352 whole entry, looked up): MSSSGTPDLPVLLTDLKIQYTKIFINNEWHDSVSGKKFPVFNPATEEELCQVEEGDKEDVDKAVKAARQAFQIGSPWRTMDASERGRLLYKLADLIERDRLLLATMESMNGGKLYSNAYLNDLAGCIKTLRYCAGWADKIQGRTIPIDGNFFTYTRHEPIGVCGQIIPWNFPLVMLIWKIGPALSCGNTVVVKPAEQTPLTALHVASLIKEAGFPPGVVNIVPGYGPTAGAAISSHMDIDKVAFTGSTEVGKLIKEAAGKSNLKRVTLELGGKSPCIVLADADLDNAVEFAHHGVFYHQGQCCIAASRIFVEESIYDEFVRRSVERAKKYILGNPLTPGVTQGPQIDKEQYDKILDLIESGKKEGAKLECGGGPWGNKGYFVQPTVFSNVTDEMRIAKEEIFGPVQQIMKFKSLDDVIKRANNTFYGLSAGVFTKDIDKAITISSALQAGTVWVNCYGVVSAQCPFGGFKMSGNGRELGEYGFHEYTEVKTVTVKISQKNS
Potency means the concentration at half of the fitted maximal effect; tags describe the fitted curve by direction and shape.
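Wherever activity, negative = inhibition is given: plate controls were no enzyme wells and a reference inhibitor.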

activity, negative = inhibition, inactive:
Cc1cc(Cl)ccc1NC(=S)NCc1ccccc1Cl -5.47%, COC(=O)Cc1cc(=O)[nH]c(/N=C(\N)Nc2cccc(C)c2)n1 13.8%, O=C(Nc1ccc(Cl)c(Cl)c1)Nc1nnc(CC2=CCCCC2)s1 -7.66%, O=C(NC12CC3CC(CC(C3)C1)C2)c1cccnc1 -12.8%, COC(=O)CCC(=O)OC1(C)C(=O)C2=CN(C3CCCC3)C(c3ccc(OC)cc3)=CC2=C(Br)C1=O (stereo not given) 9.51% [at 13.5 µM], CN(C)c1nc(-c2ccccc2C(F)(F)F)nc2ccccc12 -6.49%, COc1cccc(C(=O)Nc2ccc3nc(N4CCOCC4)cc(C)c3c2)c1 -0.172%, CC(C)C(NS(=O)(=O)c1ccc2c(c1)oc(=O)n2C)C(=O)N1CCN(c2ccccc2F)CC1 (stereo not given) -1.22%, COc1ccc(CN(C)C(=S)Nc2ccc(Cl)cc2)cc1 -9.86%, Cc1cccc(OCC(=O)NCC(=O)N/N=C/c2cc(Br)ccc2OCc2ccccc2)c1 -2.54%, CCOC(=O)C1(CC2CCCCO2)CCN(S(=O)(=O)c2ccc(OC)cc2)CC1 (stereo not given) -8.57%, COc1ccccc1C(=O)O/N=C(\N)c1ccc(Cl)cc1 0.249%, NC(=O)Cc1cn(-c2ncc(C(F)(F)F)cc2Cl)c2ccccc12 6.04%, CC(C)c1ccccc1NC(=S)NCCCn1ccnc1 6.46%

Potency, active:
C/C(=N\Nc1cc(C)nc(-c2ccccc2)n1)c1cccc([N+](=O)[O-])c1 12.6 µM, CCOc1ccc(C(C#N)N2CCOCC2)cc1OC (stereo not given) 10 µM, CC(C)CCn1c(=O)c2ccccc2n2c(CCl)nnc12 25.1 µM, Cc1cccc(OCCn2c(=S)[nH]c3ccccc32)c1 1.26 µM

Potency, inconclusive:
Cc1cccc(NC(=O)C2CCCN(C(=O)NC3CCCCC3)C2)c1C (stereo not given) 44.7 µM [inhibitor, single point], CN(CCOc1ccccc1)CC(=O)Nc1ccc(Cl)cc1[N+](=O)[O-] 14.1 µM [inhibitor, partial curve], C=CCNCCOc1ccc(C)cc1[N+](=O)[O-] 39.8 µM [inhibitor, single point], COC(=O)[C@H]1Cc2c([nH]c3ccccc23)CN1C(=O)COc1ccc2c(C)cc(=O)oc2c1 28.2 µM [inhibitor, single point], CC(C)(C)c1ccc(-c2nc3c(C#N)c(-c4ccc5c(c4)OCO5)ccn3n2)cc1 35.5 µM [inhibitor, partial curve], COc1ccc(N(CC(=O)Nc2ccccc2C(=O)O)S(=O)(=O)c2ccc(C)c([N+](=O)[O-])c2)cc1 35.5 µM [inhibitor, single point], CCCS(=O)(=O)N1CCN=C1SCc1cccnc1 7.94 µM [inhibitor, single point], O=C(NC1CCCc2ccccc21)c1cc(S(=O)(=O)N2CCOCC2)ccc1F (stereo not given) 39.8 µM [inhibitor, single point], CCCOc1ccc2c3c(c(=O)oc2c1OCCC)CCC3 25.1 µM [inhibitor, single point], Cc1noc(C)c1S(=O)(=O)Nc1ccccc1N1CCOCC1 31.6 µM [inhibitor, single point], CNC(=O)c1cc2ccc(OC)cc2oc1=O 28.2 µM [inhibitor, partial curve], O=C(c1cccc(-c2nnc(-c3ccccc3)o2)c1)N1CCCCCC1 25.1 µM [inhibitor, single point], CSc1ccc(NC(=O)c2cccnc2)cc1C#N 25.1 µM [inhibitor, partial curve], COc1ccc(C(=O)CSc2nnc(C(CO)NC(=O)c3ccc(OC)cc3)n2C)cc1 (stereo not given) 39.8 µM [inhibitor, single point], COc1cc(C2c3c([nH]c(=O)[nH]c3=O)Nc3ccc4ccccc4c32)cc(OC)c1OC (stereo not given) 35.5 µM [inhibitor, partial curve], COC(=O)c1ccc2ccn(CC(=O)NC3CCCCC3)c2c1 8.91 µM [inhibitor, partial curve], CCOC(=O)/C(C#N)=C\c1ccc(CC)s1 28.2 µM [inhibitor, single point], COc1ccccc1Nc1nnc(SCC(=O)Nc2nc(-c3ccc(F)cc3)cs2)s1 35.5 µM [inhibitor, single point], CCOCCCn1c(=N)c(C(=O)NCc2ccc3c(c2)OCO3)cc2c(=O)n3cccc(C)c3nc21 20 µM [inhibitor, partial curve], O=C(Oc1ccc2c(c1)O/C(=C\c1ccncc1)C2=O)c1ccccc1 28.2 µM [inhibitor, single point], CCCCn1c(SCC(=O)c2cc(OC)ccc2OC)nc2cc(S(N)(=O)=O)ccc21 39.8 µM [inhibitor, single point], CCOc1cccc2cc(-c3csc(NC(=O)CCC(=O)N4CCC(C)CC4)n3)c(=O)oc12 1.58 µM [inhibitor, full curve], COc1ccc(S(=O)(=O)N(CC(=O)Nc2ccc(S(=O)(=O)N3CCOCC3)cc2)c2ccccc2)cc1 25.1 µM [inhibitor, partial curve, poor fit], N/C(Cc1ccc([N+](=O)[O-])cc1)=N\OC(=O)Cc1ccccc1 39.8 µM [inhibitor, single point], O=C(CCCCCn1c(=S)[nH]c2ccc(N3CCOCC3)cc2c1=O)NC1CCN(Cc2ccccc2)CC1 39.8 µM [inhibitor, single point], Cc1nc(N2CCN(S(=O)(=O)c3ccc(F)cc3)CC2)c2c(-c3cccs3)csc2n1 28.2 µM [inhibitor, partial curve], COc1ccc(NC(=O)c2oc3ccccc3c2NC(=O)C2CC2)cc1 39.8 µM [inhibitor, single point]
